# Test results taken from the supplement of paper PMC11417369.
# The list shows a part of the results.
# Test system: PF3D7_0420300 AP2 domain 1 (GST-tagged)
# Assay: gcPBM binding intensity (ln(normalized median fluorescence intensity)); higher = stronger DNA binding
# How it was run: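 The binding buffer was 1× PBS containing 1% milk, 0.2 mg/ml BSA, 0.5% salmon testes DNA and 0.03% Triton X-100. In it, GST-tagged P. falciparum DNA-binding domains expressed in E. coli were applied for 1 h to an Agilent 4 × 180k array of primer-extended double-stranded 36-bp intergenic genomic probes plus negative controls. Binding intensity, read with Alexa488 anti-GST antibody and a 488 nm scan, is the highest Masliner-normalised natural-log median intensity across replicate spots of either probe orientation.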
row,Sequence,gcPBM binding intensity (ln)
1,ATATATATCGGACACACACACATGTTTTAAAACTAT [CACACA_site4218],9.97
2,AATAAAATGGAATACGGTACACATAATCCTAAAATG [XGTACX_site926],9.43
3,ATATTATAAAATAAAAGTACACAATTATATATATAT [XGTACX_site8812],9.35
4,TATTTTTAAAATTAAATGAATAAATAAATAAATATA [XGTACX_negctrl_site553],8.93
5,TTTATATTTATTGTTGTGCACAGAACCATATTCGTT,9.28
6,TATCACTATAGACAAGCATGCATATGTACTAATATC [TGCATGCA_site1020],9.32
7,CATTATTATTAACATACACACGTGTTATATACCCCC [CACACA_site9365],9.89
8,TATATATTTATTTATAGTACACTATTTATGAAAACC [XGTACX_site3062],9.1
9,TAACATAAATTTAGGAGTACACTTTTTATACATACA [XGTACX_site4066],9.12
10,AAATTCACAATGTTTGGTACACATAAAAAAAAAAGA [XGTACX_site7109],9.32
11,TATTATTATTTTATGGTGCAAAAAAAAAAAAAAAAA,8.56
12,AAAAATTTTTTTTTTTTTTTAAATAATAAAAATGAA [CACACA_negctrl_site1435],8.58
13,AACATACGACAATACGCACACATATCTGTACATATT [CACACA_site5115],9.8
14,TTTATATATTTTGTCGTGCACATTTGGAAAATTACA [GTGCAC_site9776],9.22
15,AATAAATAAATAAATAAATATATATATATATATATA [GTGCAC_negctrl_site224],9.07
16,TTATATTAAAAAAGATGTACGTTTAGGAAAAATATA [XGTACX_site7456],9.09
17,CTTGAAAAAATAAAAACACACAATGTGTTTTTGAAT [CACACA_site3283],9.18
18,ATAAAAATAAACATACGTACTTACACGAATATACAT [XGTACX_site5989],9.55
19,TTAGATTTAAATATCATACACACTTTATATATAATA [CACACA_site959],9.29
20,ATATTACTATATTATTGTACGTTAAAAAAAAAAAAT [XGTACX_site8734],9.22
21,TTTCTAAATAATTATAATGAATCTGCAAACAAGCAT [XGTACX_negctrl_site391],8.9
22,TATAATAATCTAATCTGTAGTTTTTTTTTTTTTTTT [CACACA_negctrl_site1206],9
23,GGCTTTTTTTAATATGCACACATATATTTTATATAT [CACACA_site8647],9.46

row,Sequence,gcPBM binding intensity (ln)
1,AAAAAAAAACAGAAAACACACAAATTATCTTATAAT [CACACA_site4326],9.71
2,TGTATATATATCTCAGTGCATTGCAAATTAAAAATT [GTGCAC_site9646],8.99
3,ATACTCACGTGACACACACACAATATAAATAAATAT [CACACA_site7862],10
4,GCTTGTACATTTTTAAAAAATGACTTCGAAAGGAAT [CACACA_negctrl_site453],8.92
5,TTCCTTATTATTATTTTACACACGTCCTAATAAGAG [CACACA_site8364],9.49
6,TTTATGCATAGAGAAACATGCAAGAAAGATGCAAAA [TGCATGCA_site726],9.03
7,ATTATGTATACATAAACACACATATTTATAAAAAAA [CACACA_site6261],9.37
8,ATATATTTATATATATGTACATATTATGTTAAGAAA [XGTACX_site1111],9.08
9,TATGTATTCATATGTTGTACATTATATATAATAAGT [XGTACX_site6589],9.16
10,AGCACACAAAAAAAAAAAAAAAAAAAAAAAGGAATG [GTGCAC_negctrl_site73],9.15
11,AAATCAGAACCTATTTGTACATATACAAAAATGATT [XGTACX_site2421],9.16
12,CATATGTAGGGAACAATATAATATGCTTTGAATATG [GTGCAC_negctrl_site524],9.24
13,TTTTAATTAGCTAGACGTACAATAATATACAAATAT [XGTACX_site6068],9.11
14,ATTTTTTTAAGATAAGAAAAATAAAGTGTGGATATT [XGTACX_negctrl_site476],9.22
15,TATTAACAAATTTATGTGCACTGAGGACAAATATAT,9.43
16,ATTTATATCTCCATATGTTCAAAACTTTCACAAATA [TGCATGCA_negctrl_site108],9.07
17,AAAATAAGTAATTACTAATATATAAATTAATAATTA [CACACA_negctrl_site1602],9.15
18,AATATAAATTAATTTACACACTAAAAAATATATATA [CACACA_site3778],9.39
19,TTTATTAATAAACACACACACACACCCAAAATAAAA [CACACA_site7966],10.2
20,TTTTCTTCATAAATGCTGCACTGGTTTAAGCATGAT,8.88
21,AAATAGAAGAAATATGCACACATACATTGAAATGTT [CACACA_site7996],9.46
22,AAAGAAAAAAAAATTACACACATATATTATATATAT [CACACA_site3211],9.52
23,CCTTAATATTTTTGAAGTACATATTTATTTTACAAG [XGTACX_site3049],9.14

row,Sequence,gcPBM binding intensity (ln)
1,TTAATATGAAATAAATGTACATAATACATAATAAAA [XGTACX_site6194],9.29
2,GTTTTTAGTATTTTTTGTACTTAATACATAGCCTTA [XGTACX_site7318],9.23
3,AATTGAAAAATATATAAGAAGAAATATATATATGTT [GTGCAC_negctrl_site97],9.32
4,AACACGCGCGGACACACACACACACCCACATATATA [CACACA_site5252],10.4
5,ACCATATAAATAAACACACACACACCGATATATATA [CACACA_site5310],10.1
6,AAAAAACAAAAAAAAAAAAAAATAATACAATATAAT [CACACA_negctrl_site1630],9.49
7,TATAATGAACATATGTGTACATATATTTTTTAAATT [XGTACX_site8736],9.11
8,GCACAACATATATTATCACACACATATATATATATA [CACACA_site8619],9.74
9,CAAAAGAATATATGTAGTACATGTTGTAGATAATAT [XGTACX_site1044],9.46
10,CGCGAAGTAGCATTCACACACAGCAAAATATAAATA [CACACA_site7608],9.6
11,TCAGATATATAGAATACACACATGGATATAAGAAAT [CACACA_site7831],9.77
12,TTTTTGTAATATTATGATGTCATATATATATATATA [XGTACX_negctrl_site618],9.12
13,ATATTTTGTAACTATACACACATATATATATTATAA [CACACA_site3062],9.56
14,AAATTGGGTACAAATACACACACATATATATATTAA [CACACA_site8745],9.83
15,ATAGATCCTAATGTTGTGCACATGTAAATTAATATA,9.3
16,TTTATACAATAAAATGCATGCAAGTATCTATTTTAT [TGCATGCA_site210],9.23
17,ATCATATAAACATATTGTACTTAAATACATAATATT [XGTACX_site3800],9.13
18,CAAACCCACGGACACACACACACAAAAATGATTAAA [CACACA_site5365],9.93
19,TTTATTTATTTATGTGGTACTTCAAAAATATATACT [XGTACX_site355],9.32
20,GGATACGCTTTTGTACCACTCCCCCTTTTGGGAATA [CACACA_negctrl_site1363],9.07
21,ATATATATATATAGTGCACACTTAAGAATATAAAGA [CACACA_site4771],9.43
22,TGTTATATAATTTAGCGTACAGGTTATAGGACGGAT [XGTACX_site8823],9.51
23,AACTATTACTTTCTTTCACACATTTTTTTTTTTTTT [CACACA_site5355],9.66

row,Sequence,gcPBM binding intensity (ln)
1,AACTCTTAGAATGACGGTACAGTATAATAGGTGAAC [XGTACX_site7163],9.4
2,ATATAATGAATTATTAGAAAATAAAATGAATAAAGT [CACACA_negctrl_site690],9.58
3,GATTTTTAAAATATCACACATAAAAAAAAAAAAAAA [CACACA_site5516],8.64
4,AAAAAAATTCTGACTTGTACATATAAAATTTACAAA [XGTACX_site4408],8.78
5,TTTGTCATTTTATTATGTACTCAGCATATAGGGGGG [XGTACX_site505],10.5
6,TAATTTAATAATTAGACACACATGTGGAAAATAAAA [CACACA_site5401],9.46
7,ACATATATATAAAGGTGTACACATATATATATATAT [XGTACX_site4779],9.37
8,TAAGAAAAAAGTAAATGTACAGAGAAAATTATCTAT [XGTACX_site7374],9.39
9,ATTTATTACAAATGAATGCACTATATCTTAATTTTG,9.17
10,ATAATTTTGATTATCACACATATATATATATATATG [CACACA_site5882],9.24
11,ATATATTTCCTGAGGAGTACTATGAAAGACAAAAAA [XGTACX_site5628],9.21
12,TAATCTCATAAAACCGCACACACATAAAATTTGCAT [CACACA_site3890],9.79
13,TTTTTAATAATCTCTCAAAATGTTCTTATATTTTAC [CACACA_negctrl_site1691],9.03
14,GAGAAATGGGGACACACACACATATTATAGATATAT [CACACA_site6829],10.1
15,TTGTTTGATATCTTTGTCACGAAAAAAATATATATA [GTGCAC_negctrl_site54],9.04
16,TAAGGATAAAATAAATGTACATATGTAAAATTATTA [XGTACX_site4170],9.21
17,ATACTAAAGAAACACACACACATATATATATAGAAT [CACACA_site100],10.3
18,TTTACACCCTAAAAATGTACAAGAAAGATTATATTA [XGTACX_site1102],9.03
19,TTAACAGTAAAACACAGTACATATATACTTAAAACA [XGTACX_site1930],9.37
20,ATTTTTTTCCTAATGGTGCGAATAAATATCCATACC,9.13
